Experimental data: the supplement of paper PMC8728848
The list shows a part of the results.

Key:
Test in all cases: glycan array binding signal (z-score within array); higher = stronger binding
Settings in all cases: glycan notation: IUPAC condensed, linker removed
[1] = biological target: Gal(b1-4)GlcNAc(b1-3)GalNAc
How it was run: (§1)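 Glycan array data were curated from 3228 arrays in the Consortium for Functional Glycomics database and kept only where the protein sequence was available. Glycan names were converted to IUPAC-condensed notation, and columns mapping to the same glycan were averaged. The binding signal is a within-array Z-score, averaged across arrays of the same protein sequence at different concentrations or buffers and across linkers. Negative Z-scores can be read as non-binding.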

[2] = biological target: Gal(b1-4)GlcNAc(b1-3)[Gal(b1-4)GlcNAc(b1-6)]GalNAc
How it was run: as §1

[3] = biological target: Gal(b1-4)GlcNAc(b1-6)Gal(b1-4)GlcNAc(b1-6)GalNAc
How it was run: as §1

[4] = biological target: Gal(b1-4)GlcNAc(b1-6)GalNAc
How it was run: as §1

[5] = biological target: Gal(b1-4)GlcNAc(b1-6)[Gal(b1-3)]GalNAc
How it was run: as §1

Gal3S(b1-3)GalNAc = biological target: Gal3S(b1-3)GalNAc
How it was run: as §1

Gal3S(b1-3)GlcNAc = biological target: Gal3S(b1-3)GlcNAc
How it was run: as §1

[6] = biological target: Gal3S(b1-3)[Fuc(a1-4)]GlcNAc
How it was run: as §1

Gal3S(b1-4)Glc = biological target: Gal3S(b1-4)Glc
How it was run: as §1

Gal3S(b1-4)Glc6S = biological target: Gal3S(b1-4)Glc6S
How it was run: as §1

Gal3S(b1-4)GlcNAc = biological target: Gal3S(b1-4)GlcNAc
How it was run: as §1

Gal3S(b1-4)GlcNAc6S = biological target: Gal3S(b1-4)GlcNAc6S
How it was run: as §1

Gal3S6S(b1-4)GlcNAc = biological target: Gal3S6S(b1-4)GlcNAc
How it was run: as §1

Gal3S6S(b1-4)GlcNAc6S = biological target: Gal3S6S(b1-4)GlcNAc6S
How it was run: as §1

Gal4S(b1-4)GlcNAc = biological target: Gal4S(b1-4)GlcNAc
How it was run: as §1

Gal4S6S(b1-4)GlcNAc = biological target: Gal4S6S(b1-4)GlcNAc
How it was run: as §1

Gal6S(b1-4)Glc = biological target: Gal6S(b1-4)Glc
How it was run: as §1

Gal6S(b1-4)Glc6S = biological target: Gal6S(b1-4)Glc6S
How it was run: as §1

Gal6S(b1-4)GlcNAc = biological target: Gal6S(b1-4)GlcNAc
How it was run: as §1

GalNAc(a1-3)Gal = biological target: GalNAc(a1-3)Gal
How it was run: as §1

GalNAc(a1-3)GalNAc = biological target: GalNAc(a1-3)GalNAc
How it was run: as §1

[7] = biological target: GalNAc(b1-3)Gal(a1-4)Gal(b1-4)GlcNAc
How it was run: as §1

GalNAc(b1-3)GalNAc = biological target: GalNAc(b1-3)GalNAc
How it was run: as §1

GalNAc(b1-4)GlcNAc = biological target: GalNAc(b1-4)GlcNAc
How it was run: as §1

Glc(a1-4)Glc = biological target: Glc(a1-4)Glc
How it was run: as §1

Glc(a1-6)Glc(a1-6)Glc = biological target: Glc(a1-6)Glc(a1-6)Glc
How it was run: as §1

Glc(b1-4)Glc = biological target: Glc(b1-4)Glc
How it was run: as §1

Glc(b1-6)Glc = biological target: Glc(b1-6)Glc
How it was run: as §1

GlcA(b1-3)Gal = biological target: GlcA(b1-3)Gal
How it was run: as §1

GlcA(b1-6)Gal = biological target: GlcA(b1-6)Gal
How it was run: as §1

[8] = biological target: GlcNAc(a1-3)Gal(b1-4)GlcNAc
How it was run: as §1

[9] = biological target: GlcNAc(a1-6)Gal(b1-4)GlcNAc
How it was run: as §1

[10] = biological target: GlcNAc(b1-2)Gal(b1-3)GalNAc
How it was run: as §1

[11] = biological target: GlcNAc(b1-2)Man(a1-3)[GlcNAc(b1-2)Man(a1-6)]Man(b1-4)GlcNAc(b1-4)GlcNAc
How it was run: as §1

GlcNAc(b1-3)Gal = biological target: GlcNAc(b1-3)Gal
How it was run: as §1

[12] = biological target: GlcNAc(b1-3)Gal(b1-3)GalNAc
How it was run: as §1

GlcNAc(b1-3)Gal(b1-4)Glc = biological target: GlcNAc(b1-3)Gal(b1-4)Glc
How it was run: as §1

[13] = biological target: GlcNAc(b1-3)Gal(b1-4)GlcNAc
How it was run: as §1

[14] = biological target: GlcNAc(b1-3)Gal(b1-4)GlcNAc(b1-3)Gal(b1-4)GlcNAc
How it was run: as §1

GlcNAc(b1-3)GalNAc = biological target: GlcNAc(b1-3)GalNAc
How it was run: as §1

[15] = biological target: GlcNAc(b1-3)[GlcNAc(b1-6)]Gal(b1-4)GlcNAc
How it was run: as §1

[16] = biological target: GlcNAc(b1-3)[GlcNAc(b1-6)]GalNAc
How it was run: as §1

[17] = biological target: GlcNAc(b1-3)[GlcNAc(b1-6)]GlcNAc(b1-4)GlcNAc
How it was run: as §1

[18] = biological target: GlcNAc(b1-4)Gal(b1-4)GlcNAc
How it was run: as §1

[19] = biological target: GlcNAc(b1-4)GlcNAc(b1-4)GlcNAc
How it was run: as §1

B1: DEC205 (Homo sapiens), O60449 (protein)
chain: MRTGWATPRRPAGLLMLLFWFFDLAEPSGRAANDPFTIVHGNTGKCIKPVYGWIVADDCDETEDKLWKWVSQHRLFHLHSQKCLGLDITKSVNELRMFSCDSSAMLWWKCEHHSLYGAARYRLALKDGHGTAISNASDVWKKGGSEESLCDQPYHEIYTRDGNSYGRPCEFPFLIDGTWHHDCILDEDHSGPWCATTLNYEYDRKWGICLKPENGCEDNWEKNEQFGSCYQFNTQTALSWKEAYVSCQNQGADLLSINSAAELTYLKEKEGIAKIFWIGLNQLYSARGWEWSDHKPLNFLNWDPDRPSAPTIGGSSCARMDAESGLWQSFSCEAQLPYVCRKPLNNTVELTDVWTYSDTRCDAGWLPNNGFCYLLVNESNSWDKAHAKCKAFSSDLISIHSLADVEVVVTKLHNEDIKEEVWIGLKNINIPTLFQWSDGTEVTLTYWDENEPNVPYNKTPNCVSYLGELGQWKVQSCEEKLKYVCKRKGEKLNDASSDKMCPPDEGWKRHGETCYKIYEDEVPFGTNCNLTITSRFEQEYLNDLMKKYDKSLRKYFWTGLRDVDSCGEYNWATVGGRRRAVTFSNWNFLEPASPGGCVAMSTGKSVGKWEVKDCRSFKALSICKKMSGPLGPEEASPKPDDPCPEGWQSFPASLSCYKVFHAERIVRKRNWEEAERFCQALGAHLSSFSHVDEIKEFLHFLTDQFSGQHWLWIGLNKRSPDLQGSWQWSDRTPVSTIIMPNEFQQDYDIRDCAAVKVFHRPWRRGWHFYDDREFIYLRPFACDTKLEWVCQIPKGRTPKTPDWYNPDRAGIHGPPLIIEGSEYWFVADLHLNYEEAVLYCASNHSFLATITSFVGLKAIKNKIANISGDGQKWWIRISEWPIDDHFTYSRYPWHRFPVTFGEECLYMSAKTWLIDLGKPTDCSTKLPFICEKYNVSSLEKYSPDSAAKVQCSEQWIPFQNKCFLKIKPVSLTFSQASDTCHSYGGTLPSVLSQIEQDFITSLLPDMEATLWIGLRWTAYEKINKWTDNRELTYSNFHPLLVSGRLRIPENFFEEESRYHCALILNLQKSPFTGTWNFTSCSERHFVSLCQKYSEVKSRQTLQNASETVKYLNNLYKIIPKTLTWHSAKRECLKSNMQLVSITDPYQQAFLSVQALLHNSSLWIGLFSQDDELNFGWSDGKRLHFSRWAETNGQLEDCVVLDTDGFWKTVDCNDNQPGAICYYSGNETEKEVKPVDSVKCPSPVLNTPWIPFQNCCYNFIITKNRHMATTQDEVHTKCQKLNPKSHILSIRDEKENNFVLEQLLYFNYMASWVMLGITYRNNSLMWFDKTPLSYTHWRAGRPTIKNEKFLAGLSTDGFWDIQTFKVIEEAVYFHQHSILACKIEMVDYKEEHNTTLPQFMPYEDGIYSVIQKKVTWYEALNMCSQSGGHLASVHNQNGQLFLEDIVKRDGFPLWVGLSSHDGSESSFEWSDGSTFDYIPWKGQTSPGNCVLLDPKGTWKHEKCNSVKDGAICYKPTKSKKLSRLTYSSRCPAAKENGSRWIQYKGHCYKSDQALHSFSEAKKLCSKHDHSATIVSIKDEDENKFVSRLMRENNNITMRVWLGLSQHSVDQSWSWLDGSEVTFVKWENKSKSGVGRCSMLIASNETWKKVECEHGFGRVVCKVPLGPDYTAIAIIVATLSILVLMGGLIWFLFQRHRLHLAGFSSVRYAQGVNEDEIMLPSFHD
[1]
  glycan array binding signal (z-score): 0.072
[2]
  glycan array binding signal (z-score): -0.095
[3]
  glycan array binding signal (z-score): -0.306
[4]
  glycan array binding signal (z-score): -0.27
[5]
  glycan array binding signal (z-score): -0.168
Gal3S(b1-3)GalNAc
  glycan array binding signal (z-score): -0.362
Gal3S(b1-3)GlcNAc
  glycan array binding signal (z-score): -0.36
[6]
  glycan array binding signal (z-score): 0.108
Gal3S(b1-4)Glc
  glycan array binding signal (z-score): -0.304
Gal3S(b1-4)Glc6S
  glycan array binding signal (z-score): -0.138
Gal3S(b1-4)GlcNAc
  glycan array binding signal (z-score): -0.384
Gal3S(b1-4)GlcNAc6S
  glycan array binding signal (z-score): -0.123
Gal3S6S(b1-4)GlcNAc
  glycan array binding signal (z-score): -0.056
Gal3S6S(b1-4)GlcNAc6S
  glycan array binding signal (z-score): 0.251
Gal4S(b1-4)GlcNAc
  glycan array binding signal (z-score): -0.285
Gal4S6S(b1-4)GlcNAc
  glycan array binding signal (z-score): -0.153
Gal6S(b1-4)Glc
  glycan array binding signal (z-score): -0.056
Gal6S(b1-4)Glc6S
  glycan array binding signal (z-score): -0.209
Gal6S(b1-4)GlcNAc
  glycan array binding signal (z-score): -0.076
GalNAc(a1-3)Gal
  glycan array binding signal (z-score): -0.394
GalNAc(a1-3)GalNAc
  glycan array binding signal (z-score): -0.426
[7]
  glycan array binding signal (z-score): 0.208
GalNAc(b1-3)GalNAc
  glycan array binding signal (z-score): -0.35
GalNAc(b1-4)GlcNAc
  glycan array binding signal (z-score): -0.284
Glc(a1-4)Glc
  glycan array binding signal (z-score): -0.389
Glc(a1-6)Glc(a1-6)Glc
  glycan array binding signal (z-score): -0.012
Glc(b1-4)Glc
  glycan array binding signal (z-score): -0.201
Glc(b1-6)Glc
  glycan array binding signal (z-score): -0.218
GlcA(b1-3)Gal
  glycan array binding signal (z-score): -0.166
GlcA(b1-6)Gal
  glycan array binding signal (z-score): 1.28
[8]
  glycan array binding signal (z-score): -0.174
[9]
  glycan array binding signal (z-score): -0.167
[10]
  glycan array binding signal (z-score): -0.398
[11]
  glycan array binding signal (z-score): -0.232
GlcNAc(b1-3)Gal
  glycan array binding signal (z-score): -0.22
[12]
  glycan array binding signal (z-score): -0.229
GlcNAc(b1-3)Gal(b1-4)Glc
  glycan array binding signal (z-score): -0.419
[13]
  glycan array binding signal (z-score): -0.276
[14]
  glycan array binding signal (z-score): 0.039
GlcNAc(b1-3)GalNAc
  glycan array binding signal (z-score): -0.307
[15]
  glycan array binding signal (z-score): -0.35
[16]
  glycan array binding signal (z-score): -0.145
[17]
  glycan array binding signal (z-score): -0.094
[18]
  glycan array binding signal (z-score): -0.173
[19]
  glycan array binding signal (z-score): 3.79
